The record followed here is publication PMC9769921, “Characteristics of the GlnH and GlnX Signal Transduction Proteins Controlling PknG-Mediated Phosphorylation of OdhI and 2-Oxoglutarate Dehydrogenase Activity in Corynebacterium glutamicum” (Microbiology Spectrum, 2022).

This experiment has as its system lipoprotein signal peptidase LspA (GlnH signal peptide cleavage). In words: Western blot of Strep-tagged GlnH after globomycin addition (lipoprotein maturation). Conditions: 50 μg/mL globomycin, C. glutamicum ΔglnH/pAN6-glnH, samples 1 h, 2 h, 3 h after addition. How it is done: C. glutamicum ΔglnH/pAN6-glnH, which encodes a C-terminally Strep-tagged GlnH, was cultivated in CGXII-glucose medium supplemented with 1 mM IPTG (isopropyl-β-D-thiogalactopyranoside) and 50 μg/mL globomycin to prevent lipoprotein maturation. Crude extracts of samples taken before and hourly after globomycin addition were analyzed by Western blot analysis with StrepTactin-alkaline phosphatase conjugate. […] This enlarged variant presumably represents the diacylglyceryl prolipoprotein form of GlnH still containing the signal peptide. Further support for this interpretation was obtained by Western blot analysis of the strain C. glutamicum ΔglnH/pAN6-glnH-C27A, in which C27 was changed to alanine, thereby preventing thiol modification of C27 and cleavage of the signal peptide. In this case, only the GlnH prolipoprotein was detected (Fig. 5C).
To analyze if GlnH is a lipoprotein, the C. glutamicum strains ΔglnH/pAN6-glnH and ΔglnH/pAN6-glnH-C27A were cultivated in CGXII medium with 4% (wt/vol) glucose and 1 mM IPTG to induce target gene expression. […] Crude cell extract samples (10 μg protein) taken prior to addition of globomycin and 1 h, 2 h, and 3 h thereafter were analyzed by Western blotting using a Strep-Tactin-horseradish peroxidase (HRP) conjugate (IBA Lifesciences, Göttingen, Germany) to detect Strep-tagged GlnH.
On the technique in general: A western blot detects proteins with antibodies after separation by electrophoresis.

Consider `CCCCCCC1OC(=O)CNC(=O)C(C(C)O)NC(=O)C(CO)NC(=O)C(C(C)CC)NC(=O)C(CC(C)C)N(C)C(=O)C1C` (stereo not shown) [globomycin], for which the “effect on GlnH maturation (Western blot)” value is “a GlnH variant with a larger apparent mass became increasingly visible”.
